In patent publication US20100330697A1, “COMPLEXES OF TRPC DOMAINS AND SESTD1 DOMAINS AND METHODS AND USES INVOLVING THE SAME” (SANOFI-AVENTIS, priority 2007, published 2010):

What was measured:
[1] = system: non-transfected HM1 cells; assay: Electrophysiological measurement of agonist-induced ion currents in non-transfected HM1 cells; type: cell-based
Method: (§1) HM1 cells were transfected with 4 μg mTRPC5-YFP construct using Lipofectamine 2000. The construct was generated by inserting a XbaI/NotI fragment of mTRPC5-GFP (Strubing C, Krapivinsky G, Krapivinsky L, & Clapham D E (2003). Formation of novel TRPC channels by complex subunit interactions in embryonic brain. J Biol Chem 278, 39014-39019) into pcDNA3.1(−)zeo. The YFP fusion was obtained by joining a NotI/EcoRI cut YFP-PCR fragment to the channel C-terminus. 24 hrs post transfection clonal selection started by cultivating the cells in complete medium (DMEM/Nutrient F12 (with glutaMAX I; Invitrogen, Karlsruhe, Germany) supplemented with 10% (v/v) FBS (PAA, Pasching, Austria), 1 mM glutamine 400 μg/mL geneticine, 50 μg/mL zeocin (all from Invitrogen, Karlsruhe, Germany)). After several days selection single clones were isolated by manual picking of grown colonies. One clone was selected for further studies. Functional expression of the ion channel was tested by electrophysiological measurements. Current densities of carbachol and trypsin-induced ion currents measured as described previously (Strubing C, Krapivinsky G, Krapivinsky L, & Clapham D E (2001). TRPC1 and TRPC5 form a novel cation channel in mammalian brain. Neuron 29, 645-655) were 15.9±5.5 pA/pF (n=10, carbachol) and 127.8±57.6 pA/pF (n=6, trypsin).

[2] = system: mTRPC5-YFP (HM1-C5Y cells); assay: Electrophysiological measurement of agonist-induced ion currents in HM1 cell line stably expressing mTRPC5-YFP; type: cell-based, murine; conditions: n=10 carbachol, n=6 trypsin
Method: as §1

[3] = PIP strip phospholipid overlay assay; type: binding; conditions: 500 ng/mL GST-SESTD1; 60 nM or 2.5 μM free Ca2+
Method: PIP strips (Invitrogen, Karlsruhe, Germany) are commercially available nitrocellulose membranes containing 100 μmol samples of 15 different phospholipids and a blank sample. They were blocked with different blocking buffers for PIP strips that are composed of 3% essentially fatty acid free BSA (Sigma, Munich Germany) in • a) TBST (150 mM NaCl, 10 mM Tris-HCl, 0.1% Tween 20, pH 8), • b) TBST with 0.06 μM free Ca^2+ (150 mM NaCl, 10 mM Tris-HCl, 1 mM EGTA, 1 mM MgCl2, 0.9 mM CaCl2, 0.1% Tween 20, pH 8) • c) TBST with 2.5 μM free Ca^2+ (150 mM NaCl, 10 mM Tris-HCl, 1 mM EGTA, 1 mM MgCl2, 1 mM CaCl2, 0.1% Tween 20, pH 8) for 1 hr (RT) and subsequently incubated with blocking buffer a) containing 500 ng/mL purified GST or blocking buffer b) or c), respectively, with 500 ng/mL GST-SESTD1 (4 hr, RT). After washing (2 times with the individual blocking buffers and subsequently once with blocking buffer a)) they were incubated at 4° C. overnight with the first antibody anti-GST (1:2,000 in blocking buffer a)). […] The membranes were washed again three times with TBST, incubated with 1 mL Lumi-LightPLUS Western blotting substrate (5 min) (Roche, Mannheim, Germany) and the chemiluminescent signals were analyzed with a Lumi Imager (Roche, Mannheim, Germany).
FIG. 13: SESTD1 binding of phospholipids is Ca^2+-dependent. […] Signals were detected by enhanced chemiluminescence (ECL).

[4] = Cova-PIP plate binding assay (DELFIA); conditions: plates loaded with 100 pmol substrate per well; varying amounts of SESTD1
Method: The GST-tagged PH-domain of LL5-α, GST alone or GST-SESTD1 were diluted in blocking buffer a) for PIP strips (Example 8a). Cova-PIP specificity plates (Echelon, Salt Lake City, USA) loaded with 10 or 100 pmol PIPn per well were incubated with 100 μL protein solution per well for 3 hrs at RT. Plates were washed manually 3 times with blocking buffer a) for PIP strips before 100 μL anti-GST (1:1,000 in blocking buffer a) for PIP strips were added to each well and incubated 1 hr at RT. Plate was washed 4 times with TBST (150 mM NaCl, 10 mM Tris-HCl, 0.1% Tween 20, pH8) using an automatic plate washer.
For dissociation-enhanced lanthanide fluorescence immunoassays (DELFIA) 100 μL secondary Eu-N1-labeled anti-rabbit antibody (500 ng/mL in blocking buffer a) for PIP strips were added per well and incubated 1 hr at RT. […] After 20 min incubation fluorescence of the lanthanide was excited (Aexc=340 nm) and read (λexc=620 nm) in a Tecan Ultra plate reader (Tecan, Crailsheim, Germany).
FIG. 14: Detection of SESTD1-phospholipid binding in Cova-PIP specificity plates using DELFIA. […] Bound protein was detected with anti-GST (1:1,000) and secondary Eu-N1-labeled goat anti-rabbit antibody (50 ng/well). Lanthanide fluorescence (λexc=340 nm, λem=620 nm) was measured.

trypsin
Currents induced by carbachol or trypsin [1]: no significant currents
Current densities of carbachol and trypsin-induced ion currents [2]: 127.8±57.6 pA/pF

C[N+](C)(C)CCOC(N)=O [carbachol]
Currents induced by carbachol or trypsin [1]: no significant currents
Current densities of carbachol and trypsin-induced ion currents [2]: 15.9±5.5 pA/pF

B1: GST-SESTD1: recombinant human SESTD1 N-terminally fused with GST, expressed in E. coli (protein)
chain: MEASVILPILKKKLAFLSGGKDRRSGLILTIPLCLEQTNMDELSVTLDYLLSIPSEKCKARGFTVIVDGRKSQWNVVKTVVVMLQNVVPAEVSLVCVVKPDEFWDKKVTHFCFWKEKDRLGFEVILVSANKLTRYIEPCQLTEDFGGSLTYDHMDWLNKRLVFEKFTKESTSLLDELALINNGSDKGNQQEKERSVDLNFLPSVDPETVLQTGHELLSELQQRRFNGSDGGVSWSPMDDELLAQPQVMKLLDSLREQYTRYQEVCRQRSKRTQLEEIQQKVMQVVNWLEGPGSEQLRAQWGIGDSIRASQALQQKHEEIESQHSEWFAVYVELNQQIAALLNAGDEEDLVELKSLQQQLSDVCYRQASQLEFRQNLLQAALEFHGVAQDLSQQLDGLLGMLCVDVAPADGASIQQTLKLLEEKLKSVDVGLQGLREKGQGLLDQISNQASWAYGKDVTIENKENVDHIQGVMEDMQLRKQRCEDMVDVRRLKMLQMVQLFKCEEDAAQAVEWLSELLDALLKTHIRLGDDAQETKVLLEKHRKFVDVAQSTYDYGRQLLQATVVLCQSLRCTSRSSGDTLPRLNRVWKQFTIASEERVHRLEMAIAFHSNAEKILQDCPEEPEAINDEEQFDEIEAVGKSLLDRLTVPVVYPDGTEQYFGSPSDMASTAENIRDRMKLVNLKRQQLRHPEMVTTES
modifications: left off: a dimerising Fc or GST
notes: recombinant human SESTD1 N-terminally fused with GST, expressed in E. coli
Binding to phosphatidyl-inositol-mono- and diphosphates (PIP, PIP2) and phosphatidic acid [3]: Specific binding
Binding on Cova PIP specificity plates [4]: bound specifically to all phosphoinositides
